Consider 84 molecules from ChEMBL document CHEMBL4888484, “Replenishing the malaria drug discovery pipeline: Screening and hit evaluation of the MMV Hit Generation Library 1 (HGL1) against asexual blood stage Plasmodium falciparum ,using a nano luciferase reporter read-out” (2022).

As a reminder, the % Inhibition is the change of the read-out against control, counted positive when it falls.

Hit rate of the full screen: of about 150,000 compounds, about 540 (0.36%) showed an effect of 50% or more. The list shows a part of the results.

For this assay, the system named is Plasmodium falciparum. Put plainly: Primary screen in NF54 nanoGlo assay, in single point, at 2uM, 72h; a lower Z score goes with more inhibition. The settings on record: timepoint 72 hour. Format: functional, Erythrocyte.
As for `O=C(c1ccc2c(c1)OCO2)N1CC[C@H](N2C(=O)COC2=O)C1`, the “% Inhibition” value was -4% and the Z score worked out at 0.7.
As to `COc1cc(OC)c(-c2nc3cc4[nH]c(=O)[nH]c4cc3[nH]2)cc1Cl`, the “% Inhibition” value was found to be 10% and the Z score is recorded as -1.27.
In the case of `Cc1cn(C)nc1C(=O)Nc1nnc(-c2ccco2)o1`, the “% Inhibition” value is recorded as -4% and the Z score is 0.66.
For `COc1ccc(Br)cc1NC(=O)NC(C)C(C)CO` (stereo not drawn) the same measures were 32% and -3.64.
On to `CON(C)C(=O)c1cccc(N(C)C)c1`, for which the “% Inhibition” value turned out to be 4% and the Z score is given as -0.39.
As to `CCCCn1c(C)c(C)c(S(=O)(=O)c2ccccc2)c1N`, the “% Inhibition” value was -9% and the Z score is 1.23.
For `O=C(NC[C@H]1CN(S(=O)(=O)Cc2ccccc2)CC12CCOCC2)N1CCCC1` the same measures were -7% and 0.89.
Consider `O=C(N[C@H]1CCN(c2ccc(F)c(Cl)c2)C1=O)c1cnccn1`, for which the “% Inhibition” value was 31% and the Z score is given as -3.52.
For `C[C@@H](NC(=O)C1CCc2[nH]nnc2C1)c1ccc(C(F)(F)F)cc1` (stereo partly drawn), the “% Inhibition” value is on record as -15% and the Z score is reported as 1.39.
Take `COCc1cc(-c2cc(-c3c(C)n[nH]c3C)nc(N)c2C#N)ccc1OC`: the “% Inhibition” value was -4% and the Z score came out at 0.81.
In the case of `CC(C)[C@H](Nc1cccc(F)c1C#N)C(N)=O`, the “% Inhibition” value is given as -14% and the Z score was 1.17.
For `CCc1ncc(C(=O)N(Cc2ccncc2)Cc2cccnc2)s1` the same measures were -5% and 0.89.
Consider `COc1ccc(CN[C@H](c2cccc3ccccc23)C(F)(F)F)nn1`, for which the “% Inhibition” value is recorded as -9% and the Z score is reported as 1.35.
In the case of `CS(=O)(=O)NC1CC(NS(=O)(=O)c2cccc3c2OC(F)(F)O3)C1` (stereo not drawn), the “% Inhibition” value was 3% and the Z score is given as -0.38.
In the case of `CC(C)C(=O)N[C@@H](Cc1c[nH]c2ccccc12)C(=O)N(C)Cc1nnc2n1CCCCC2`, the “% Inhibition” value is listed as -3% and the Z score is reported as 0.4.
For `COCC(=O)Nc1cc(C(=O)N[C@@H](C)c2c(C)nn(C)c2C)c2c(c1)ncn2Cc1ccc(F)cc1` the same measures were -8% and 1.13.
In the case of `C[C@@H](C1CC1)N(C(=O)NCCc1cnn(-c2ccccc2)c1)C1CC1`, the “% Inhibition” value is recorded as 2% and the Z score is given as -0.29.
Regarding `CNc1ncccc1C(=O)N1CCO[C@H](C(=O)N(C)C)C1`, the “% Inhibition” value was found to be 2% and the Z score is reported as -0.19.
In the case of `CCCn1nnnc1CN(C)Cc1nnc(C2CC2)n1C`, the “% Inhibition” value was -10% and the Z score came out at 1.28.
Take `Cc1[nH]nc(-c2nc(-c3cn(C)c(=O)[nH]c3=O)no2)c1C(F)(F)F`: the “% Inhibition” value is given as -11% and the Z score worked out at 1.85.
On to `Cn1c(CN2CCOCC2)nnc1C1CCN(C(=O)c2ncccc2O)CC1`, for which the “% Inhibition” value is reported as 0% and the Z score is -0.04.
Turning to `O=C1C(N2C(=O)C3CCCN3C2=O)CCN1Cc1ccc(F)cc1` (stereo not drawn), the “% Inhibition” value is listed as -2% and the Z score was 0.23.
Regarding `CCc1cc(CNC(=O)c2cccc(S(=O)(=O)N[C@H]3CCOC3)c2)on1`, the “% Inhibition” value is -3% and the Z score came to 0.57.
As for `CCN(CCO)C(=O)c1ccc(C(=O)OC)cc1`, the “% Inhibition” value is on record as -14% and the Z score was found to be 1.41.
As for `O=C(CNc1cccc(C(F)(F)F)c1)Nc1ccccc1C(=O)NC1CC1`, the “% Inhibition” value is given as 2% and the Z score is -0.37.
For `CCc1cccc(OC2CN(Cc3cnn(CC)c3)C2)c1` the same measures were -2% and 0.42.
Take `Cc1ccc(C(=O)N[C@H]2CC(=O)N(C)C2)cn1`: the “% Inhibition” value is on record as -1% and the Z score was found to be 0.26.
Consider `Cc1cccnc1C(=O)N1CC[C@H](c2sccc2C)[C@@H](O)C1`, for which the “% Inhibition” value was -2% and the Z score stood at 0.3.
Take `CN1CCCC[C@@H]1CN1CC(Oc2ccccc2F)C1`: the “% Inhibition” value was -17% and the Z score is 1.9.
For `Cc1ccc(C(=O)N2CCN(C3CCCCC3)CC2)c(C2CCN(C(=O)c3c(F)cccc3F)CC2)n1` the same measures were -17% and 2.38.
Turning to `Cc1ccsc1-c1noc([C@H]2CCc3nccn3C2)n1`, the “% Inhibition” value is reported as -5% and the Z score was determined as 0.62.
Take `CC1CCCC(NC(=O)Nc2nnn(C)n2)C1` (stereo not drawn): the “% Inhibition” value is 0% and the Z score stood at 0.09.
Regarding `Cc1cc([C@@H]2CCCN2C(=O)Nc2cccc(S(=O)(=O)C3CCCC3)c2)no1`, the “% Inhibition” value worked out at 3% and the Z score is recorded as -0.43.
For `COc1cccc(C(=O)Nc2ccc3ncnc(N4CCCCC4)c3c2)c1` the same measures were -19% and 1.81.
Turning to `Cc1ccc(S(=O)(=O)NCc2nc3cccnc3n2C)cc1`, the “% Inhibition” value is 0% and the Z score is -0.06.
As for `O=c1[nH]cnc2c1CCN(S(=O)(=O)Cc1cc(Cl)cc(Cl)c1)C2`, the “% Inhibition” value is given as 3% and the Z score is listed as -0.53.
For the molecule `CC(C)c1cnc2cc(C(=O)O)[nH]c2c1`, the “% Inhibition” value is -18% and the Z score is 1.86.
With `O=C(COc1ccc2nc3n(c(=O)c2c1)CCC3)Nc1ncc[nH]1`, the “% Inhibition” value is 2% and the Z score is -0.33.
For `CCCCn1nc(CC(N)=O)nc1CCc1ccc(C)cc1C` the same measures were -10% and 1.56.
For `O=C(Cn1ncccc1=O)N1Cc2ccccc2C1` the same measures were 8% and -1.02.
Regarding `C[C@H]1Cc2ccccc2N1Cc1nc(-c2ccc(F)cc2)no1`, the “% Inhibition” value is reported as -21% and the Z score amounted to 1.73.
For `O=C(CN(Cc1ccno1)C[C@H]1CCCO1)N1CCCC1`, the “% Inhibition” value is reported as -10% and the Z score is listed as 1.31.
In the case of `C[C@H]1NC(=O)N(c2cccc(C#N)c2)C1=O`, the “% Inhibition” value was -4% and the Z score is listed as 0.53.
Take `COC(=O)N1CC[C@H](Nc2ncc(Br)cn2)C1`: the “% Inhibition” value came to 0% and the Z score is recorded as 0.04.
For `Cc1ncc2n1C[C@@H](C(=O)N(CC1CC1)CC1CC1)CC2` the same measures were 0% and -0.03.
In the case of `CCc1nc(C2(NS(=O)(=O)c3cc(C)oc3C)CCCC2)no1`, the “% Inhibition” value was -4% and the Z score is given as 0.42.
`O=C(NCCn1cccn1)N1C2CCC1CC(CCF)C2` (stereo not drawn): the “% Inhibition” value is listed as -17% and the Z score is 2.43.
On to `CCOC(=O)C1CCN(C(=O)[C@@H]2COC3(CCC(C)CC3)N2C(=O)c2cccc(C)c2)CC1` (stereo partly drawn), for which the “% Inhibition” value came out at 1% and the Z score was -0.1.
Consider `COc1ccc(C(=O)CN2CCN(C(=O)c3c(OC)cccc3OC)CC2)cc1`, for which the “% Inhibition” value is listed as -15% and the Z score came to 2.75.
For `C=CCNC(=O)N1CCC(O)(c2csc(CN(CC)CC)n2)CC1` the same measures were 30% and -3.39.
On to `O=C(CCc1c[nH]c2ccccc12)N1CCC(c2c[nH]c3ccccc23)CC1`, for which the “% Inhibition” value came to 8% and the Z score is recorded as -1.59.
As to `CCC1C(=O)CC(c2ccco2)NC1c1ccco1` (stereo not drawn), the “% Inhibition” value is on record as 35% and the Z score is on record as -1.3.
Take `CCCc1cc(N2CCC[C@H](CN3CCCC3=O)C2)nc(C)n1`: the “% Inhibition” value is recorded as -11% and the Z score is given as 1.5.
Consider `CC(C)C[C@@H](CO)n1ccnc1-c1ccccc1Cl`, for which the “% Inhibition” value is -8% and the Z score amounted to 1.11.
On to `CC(C)C(=O)CNC(=O)[C@H](C)Oc1cccnc1`, for which the “% Inhibition” value is recorded as -11% and the Z score was found to be 1.09.
As for `Cn1ccnc1CC[C@H]1CCCCN1Cc1cc(C(C)(C)C)[nH]n1`, the “% Inhibition” value was -6% and the Z score is reported as 0.62.
For `O=C(CN1CCN(c2ccccc2F)C1=O)N1CCN(c2ccccc2O)CC1` the same measures were -7% and 0.86.
`OC[C@@]1(CCc2ccccc2)CCCN(c2ncccc2F)C1`: the “% Inhibition” value is recorded as 0% and the Z score was -0.01.
Consider `Cc1ccc(NC(=O)Nc2cc(C)ccc2N2CCCN(Cc3ccc(F)cc3)C2=O)cc1`, for which the “% Inhibition” value is reported as 37% and the Z score is -4.62.
For `O=S(=O)(c1ccsc1)N1CC[C@H](c2nnc[nH]2)C1` the same measures were -17% and 3.14.
For the molecule `CN=C(NC)NCC1(C)Cc2ccccc2C1`, the “% Inhibition” value was -9% and the Z score stood at 1.39.
For `CCN=C(NCCOCC)NCc1cccc(OC)c1` the same measures were -4% and 0.44.
Consider `COC(=O)[C@H](Cc1ccc(OC)cc1)NC(=O)[C@H]1CN(C(=O)c2cccnc2)CCN1C(=O)NC1CCCCC1`, for which the “% Inhibition” value is reported as 6% and the Z score is recorded as -0.95.
For `Cc1[nH]c(=O)c(C#N)c(C)c1CCC(=O)Nc1ccc(N2CCCCC2)cc1` the same measures were -11% and 1.71.
As for `O=C(Nc1ccccc1)c1cccc(N2C(=O)C3CCCCC3C2=O)c1` (stereo not drawn), the “% Inhibition” value is listed as -2% and the Z score was 0.24.
For `COC1CN(c2ccc(NC(=O)NC3CCCC3)cc2)C1` the same measures were -11% and 1.57.
With `CCOC(=O)c1c(-c2ccccc2)n(C)c2cc(-c3cccnc3)c(O)cc12`, the “% Inhibition” value worked out at 9% and the Z score is -1.7.
As for `CCc1nc(-c2cc(S(=O)(=O)NCC(=O)N3CCOCC3)c(C)s2)no1`, the “% Inhibition” value is on record as -8% and the Z score is 0.8.
For `O=C(CN1C[C@H]2CCS(=O)(=O)[C@H]2C1)NC1CCCC1` the same measures were -11% and 1.39.
Take `CCc1nc(C)c(CC(=O)N[C@H]2CC[C@@H]3CCC[C@@H]32)c(=O)[nH]1`: the “% Inhibition” value is reported as -13% and the Z score stood at 1.37.
As to `COc1cccc(CNC(=O)c2oc3ccc4c(c3c2C)[C@@H](O)CC2(CCCCCC2)O4)c1`, the “% Inhibition” value is -3% and the Z score turned out to be 0.43.
Regarding `CC(=O)Nc1ccc(N2C[C@@]34C=C[C@@H](O3)C(C(=O)NCc3ccncc3)C4C2=O)cc1` (stereo partly drawn), the “% Inhibition” value is listed as -4% and the Z score was 0.55.
For `COc1ccc(CC(=O)N[C@H]2CCN(c3ncc[nH]c3=O)C2)c(C)c1`, the “% Inhibition” value was -10% and the Z score amounted to 1.64.
For `Nc1cc(C(=O)N2C[C@H]3CC[C@@H](C2)N(CC2CCC2)C3=O)n[nH]1` the same measures were -13% and 1.78.
For `CCc1noc(CN(CCC(F)(F)F)CC(=O)OC)n1` the same measures were -9% and 0.78.
For `COc1cc(Br)ccc1N` the same measures were 32% and -0.52.
With `Cc1nc(C(=O)N2CCN(Cc3ccccc3)[C@@H]3CS(=O)(=O)C[C@@H]32)c(C)o1`, the “% Inhibition” value is given as -2% and the Z score worked out at 0.24.
As to `O=S(=O)(c1ccc(Cl)s1)N1CCC[C@H]1c1ccc2c(c1)OCCO2`, the “% Inhibition” value is recorded as -5% and the Z score worked out at 0.77.
As for `CCn1cc(CNC(=O)CCCn2cnnn2)c(C)n1`, the “% Inhibition” value is on record as -6% and the Z score was 1.05.
For `C[C@H](Oc1ccc(-c2ccccc2)c(F)c1)c1cc[nH]n1` the same measures were 1% and -0.07.
For `COc1cccc(C[C@@H]2CC[C@H](CN3CCC(C(=O)O)CC3)O2)n1` the same measures were -3% and 0.24.
For `Cc1ccc2[nH]c(CN[C@H]3CC[C@@H](O)C3)cc2c1C` the same measures were 5% and -0.52.
`CN(CC1CCCN(C(=O)C(Cc2ccccc2)NC(=O)c2ccccc2)C1)C(=O)OC(C)(C)C` (stereo not drawn): the “% Inhibition” value is listed as -13% and the Z score came to 2.65.
Consider `CCOc1cccc(-c2ccc3nc(-c4ccc(F)cc4)c(CN4CCN(C(=O)c5ccccc5)CC4)n3c2)c1`, for which the “% Inhibition” value is recorded as 1% and the Z score is -0.12.
